# Some of the results follow.
# B1: MpL2 (Macrolepiota procera) (protein)
# chain: MSTQVSSGQTYKITNVKAGTVIRLSGEDNKSIIGYPYHSGKNQQWTFNWTGKAWTLRSASSGSYLGIEGTPADGTRLVAVNDPFEWHIWRDEANENAFRIFVPFTNYNLDLSGYGDTTPGTPVQLWWTWEGLHQTWTIDRP
# What was measured:
# Experiment in all cases: glycan array binding signal (z-score within array); higher = stronger binding
# Details in all cases: glycan notation: IUPAC condensed, linker removed; mutation: D22R
# [1] = biological target: Gal(b1-4)GlcNAc(b1-2)[Gal(b1-4)GlcNAc(b1-6)]Man(a1-6)[Gal(b1-4)GlcNAc(b1-2)Man(a1-3)]Man(b1-4)GlcNAc(b1-4)[Fuc(a1-6)]GlcNAc
# Summary of the method: (§1)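 The Consortium for Functional Glycomics database supplied 3228 glycan arrays, of which those lacking an available protein sequence were dropped. The binding signal, a within-array Z-score, was averaged across arrays of the same protein sequence and across linkers. Negative scores can be read as non-binding.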
# [2] = biological target: Gal(b1-4)GlcNAc(b1-2)[Gal(b1-4)GlcNAc(b1-6)]Man(a1-6)[GlcNAc(b1-4)][Gal(b1-4)GlcNAc(b1-2)Man(a1-3)]Man(b1-4)GlcNAc(b1-4)GlcNAc
# Summary of the method: as §1
# [3] = biological target: Gal(b1-4)GlcNAc(b1-2)[Gal(b1-4)GlcNAc(b1-6)]Man(a1-6)[GlcNAc(b1-4)][Gal(b1-4)GlcNAc(b1-2)[Gal(b1-4)GlcNAc(b1-4)]Man(a1-3)]Man(b1-4)GlcNAc(b1-4)[Fuc(a1-6)]GlcNAc
# Summary of the method: as §1
# [4] = biological target: Gal(b1-4)GlcNAc(b1-3)Gal(b1-3)GalNAc
# Summary of the method: as §1
# [5] = biological target: Gal(b1-4)GlcNAc(b1-3)Gal(b1-3)GlcNAc
# Summary of the method: as §1
# [6] = biological target: Gal(b1-4)GlcNAc(b1-3)Gal(b1-4)Glc
# Summary of the method: as §1
# [7] = biological target: Gal(b1-4)GlcNAc(b1-3)Gal(b1-4)GlcNAc
# Summary of the method: as §1
# [8] = biological target: Gal(b1-4)GlcNAc(b1-3)Gal(b1-4)GlcNAc(b1-2)Man(a1-3)[Gal(b1-4)GlcNAc(b1-3)Gal(b1-4)GlcNAc(b1-2)Man(a1-6)]Man(b1-4)GlcNAc(b1-4)GlcNAc
# Summary of the method: as §1
# [9] = biological target: Gal(b1-4)GlcNAc(b1-3)Gal(b1-4)GlcNAc(b1-2)Man(a1-3)[Gal(b1-4)GlcNAc(b1-3)Gal(b1-4)GlcNAc(b1-2)Man(a1-6)]Man(b1-4)GlcNAc(b1-4)[Fuc(a1-6)]GlcNAc
# Summary of the method: as §1
# [10] = biological target: Gal(b1-4)GlcNAc(b1-3)Gal(b1-4)GlcNAc(b1-2)[Gal(b1-4)GlcNAc(b1-3)Gal(b1-4)GlcNAc(b1-6)]Man(a1-6)[Gal(b1-4)GlcNAc(b1-3)Gal(b1-4)GlcNAc(b1-2)Man(a1-3)]Man(b1-4)GlcNAc(b1-4)GlcNAc
# Summary of the method: as §1
# [11] = biological target: Gal(b1-4)GlcNAc(b1-3)Gal(b1-4)GlcNAc(b1-2)[Gal(b1-4)GlcNAc(b1-3)Gal(b1-4)GlcNAc(b1-6)]Man(a1-6)[Gal(b1-4)GlcNAc(b1-3)Gal(b1-4)GlcNAc(b1-2)Man(a1-3)]Man(b1-4)GlcNAc(b1-4)[Fuc(a1-6)]GlcNAc
# Summary of the method: as §1
# [12] = biological target: Gal(b1-4)GlcNAc(b1-3)Gal(b1-4)GlcNAc(b1-3)Gal(b1-4)GlcNAc
# Summary of the method: as §1
# [13] = biological target: Gal(b1-4)GlcNAc(b1-3)Gal(b1-4)GlcNAc(b1-3)Gal(b1-4)GlcNAc(b1-2)Man(a1-3)[Gal(b1-4)GlcNAc(b1-3)Gal(b1-4)GlcNAc(b1-3)Gal(b1-4)GlcNAc(b1-2)Man(a1-6)]Man(b1-4)GlcNAc(b1-4)GlcNAc
# Summary of the method: as §1
# [14] = biological target: Gal(b1-4)GlcNAc(b1-3)Gal(b1-4)GlcNAc(b1-3)Gal(b1-4)GlcNAc(b1-2)Man(a1-3)[Gal(b1-4)GlcNAc(b1-3)Gal(b1-4)GlcNAc(b1-3)Gal(b1-4)GlcNAc(b1-2)Man(a1-6)]Man(b1-4)GlcNAc(b1-4)[Fuc(a1-6)]GlcNAc
# Summary of the method: as §1
# [15] = biological target: Gal(b1-4)GlcNAc(b1-3)Gal(b1-4)GlcNAc(b1-3)Gal(b1-4)GlcNAc(b1-2)[Gal(b1-4)GlcNAc(b1-3)Gal(b1-4)GlcNAc(b1-3)Gal(b1-4)GlcNAc(b1-6)]Man(a1-6)[Gal(b1-4)GlcNAc(b1-3)Gal(b1-4)GlcNAc(b1-3)Gal(b1-4)GlcNAc(b1-2)Man(a1-3)]Man(b1-4)GlcNAc(b1-4)[Fuc(a1-6)]GlcNAc
# Summary of the method: as §1
# [16] = biological target: Gal(b1-4)GlcNAc(b1-3)Gal(b1-4)GlcNAc(b1-3)Gal(b1-4)GlcNAc(b1-3)Gal(b1-4)GlcNAc(b1-2)Man(a1-3)[Gal(b1-4)GlcNAc(b1-3)Gal(b1-4)GlcNAc(b1-3)Gal(b1-4)GlcNAc(b1-3)Gal(b1-4)GlcNAc(b1-2)Man(a1-6)]Man(b1-4)GlcNAc(b1-4)GlcNAc
# Summary of the method: as §1
# [17] = biological target: Gal(b1-4)GlcNAc(b1-3)Gal(b1-4)GlcNAc(b1-3)Gal(b1-4)GlcNAc(b1-3)Gal(b1-4)GlcNAc(b1-2)Man(a1-3)[Gal(b1-4)GlcNAc(b1-3)Gal(b1-4)GlcNAc(b1-3)Gal(b1-4)GlcNAc(b1-3)Gal(b1-4)GlcNAc(b1-2)Man(a1-6)]Man(b1-4)GlcNAc(b1-4)[Fuc(a1-6)]GlcNAc
# Summary of the method: as §1
# [18] = biological target: Gal(b1-4)GlcNAc(b1-3)Gal(b1-4)GlcNAc(b1-3)Gal(b1-4)GlcNAc(b1-3)Gal(b1-4)GlcNAc(b1-2)[Gal(b1-4)GlcNAc(b1-3)Gal(b1-4)GlcNAc(b1-3)Gal(b1-4)GlcNAc(b1-3)Gal(b1-4)GlcNAc(b1-6)]Man(a1-6)[Gal(b1-4)GlcNAc(b1-3)Gal(b1-4)GlcNAc(b1-3)Gal(b1-4)GlcNAc(b1-3)Gal(b1-4)GlcNAc(b1-2)Man(a1-3)]Man(b1-4)GlcNAc(b1-4)[Fuc(a1-6)]GlcNAc
# Summary of the method: as §1
# [19] = biological target: Gal(b1-4)GlcNAc(b1-3)Gal(b1-4)GlcNAc(b1-3)Gal(b1-4)GlcNAc(b1-3)Gal(b1-4)GlcNAc(b1-3)Gal(b1-4)GlcNAc(b1-2)Man(a1-3)[Gal(b1-4)GlcNAc(b1-3)Gal(b1-4)GlcNAc(b1-3)Gal(b1-4)GlcNAc(b1-3)Gal(b1-4)GlcNAc(b1-3)Gal(b1-4)GlcNAc(b1-2)Man(a1-6)]Man(b1-4)GlcNAc(b1-4)GlcNAc
# Summary of the method: as §1
# [20] = biological target: Gal(b1-4)GlcNAc(b1-3)Gal(b1-4)GlcNAc(b1-3)Gal(b1-4)GlcNAc(b1-3)Gal(b1-4)GlcNAc(b1-3)Gal(b1-4)GlcNAc(b1-2)Man(a1-3)[Gal(b1-4)GlcNAc(b1-3)Gal(b1-4)GlcNAc(b1-3)Gal(b1-4)GlcNAc(b1-3)Gal(b1-4)GlcNAc(b1-3)Gal(b1-4)GlcNAc(b1-2)Man(a1-6)]Man(b1-4)GlcNAc(b1-4)[Fuc(a1-6)]GlcNAc
# Summary of the method: as §1
# [21] = biological target: Gal(b1-4)GlcNAc(b1-3)Gal(b1-4)GlcNAc(b1-3)Gal(b1-4)GlcNAc(b1-3)Gal(b1-4)GlcNAc(b1-3)Gal(b1-4)GlcNAc(b1-2)[Gal(b1-4)GlcNAc(b1-3)Gal(b1-4)GlcNAc(b1-3)Gal(b1-4)GlcNAc(b1-3)Gal(b1-4)GlcNAc(b1-3)Gal(b1-4)GlcNAc(b1-6)]Man(a1-6)[Gal(b1-4)GlcNAc(b1-3)Gal(b1-4)GlcNAc(b1-3)Gal(b1-4)GlcNAc(b1-3)Gal(b1-4)GlcNAc(b1-3)Gal(b1-4)GlcNAc(b1-2)Man(a1-3)]Man(b1-4)GlcNAc(b1-4)[Fuc(a1-6)]GlcNAc
# Summary of the method: as §1
# [22] = biological target: Gal(b1-4)GlcNAc(b1-3)Gal(b1-4)GlcNAc(b1-3)Gal(b1-4)GlcNAc(b1-3)Gal(b1-4)GlcNAc(b1-3)Gal(b1-4)GlcNAc(b1-3)Gal(b1-4)GlcNAc(b1-2)Man(a1-3)[Gal(b1-4)GlcNAc(b1-3)Gal(b1-4)GlcNAc(b1-3)Gal(b1-4)GlcNAc(b1-3)Gal(b1-4)GlcNAc(b1-3)Gal(b1-4)GlcNAc(b1-3)Gal(b1-4)GlcNAc(b1-2)Man(a1-6)]Man(b1-4)GlcNAc(b1-4)GlcNAc
# Summary of the method: as §1
# [23] = biological target: Gal(b1-4)GlcNAc(b1-3)Gal(b1-4)GlcNAc(b1-3)GalNAc
# Summary of the method: as §1
binder,measurement,setting,value
B1,glycan array binding signal (z-score),[1],0.89
same,glycan array binding signal (z-score),[2],-0.082
same,glycan array binding signal (z-score),[3],0.014
same,glycan array binding signal (z-score),[4],-0.633
same,glycan array binding signal (z-score),[5],-0.285
same,glycan array binding signal (z-score),[6],-0.12
same,glycan array binding signal (z-score),[7],-0.231
same,glycan array binding signal (z-score),[8],2.6
same,glycan array binding signal (z-score),[9],0.975
same,glycan array binding signal (z-score),[10],1.39
same,glycan array binding signal (z-score),[11],2.5
same,glycan array binding signal (z-score),[12],-0.248
same,glycan array binding signal (z-score),[13],2.57
same,glycan array binding signal (z-score),[14],1.14
same,glycan array binding signal (z-score),[15],2.85
same,glycan array binding signal (z-score),[16],0.327
same,glycan array binding signal (z-score),[17],1.18
same,glycan array binding signal (z-score),[18],1.89
same,glycan array binding signal (z-score),[19],-0.059
same,glycan array binding signal (z-score),[20],-0.032
same,glycan array binding signal (z-score),[21],0.704
same,glycan array binding signal (z-score),[22],0.99
same,glycan array binding signal (z-score),[23],2.32

# Source: the supplement of paper PMC8728848
